# Experimental data from the supplement of paper PMC4604168 (melanoma cell lines).
# Some of the results follow. Many values rest on one well or one pass, so single values are uncertain.
# Test system: IPC-298
# Test: cell count relative to DMSO control; melanoma cells; higher = more viable cells
# Conditions: library dose: low library concentration; 72 h
# 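Further: cell number obtained by counting DAPI-stained nuclei in high-throughput microscope images with image analysis software, screen run in 1,536-well plates.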
row,SMILES,cell count [%]
1,"C=C(c1ccc(C(=O)O)cc1)c1cc2c(cc1C)C(C)(C)CCC2(C)C [Bexarotene] + N#Cc1c(O)c2c(-c3ccc(-c4ccccc4O)cc3)csc2[nH]c1=O [A769662] (first compound 2 µM, partner dose 2 µM)",88
2,"C=C(c1ccc(C(=O)O)cc1)c1cc2c(cc1C)C(C)(C)CCC2(C)C [Bexarotene] + COc1ccc(-c2ccc3c(N4CCOCC4)nc(N4C[C@@H](C)O[C@@H](C)C4)nc3n2)cc1CO [KU0063794] (first compound 2 µM, partner dose 0.02 µM)",88.5
3,"CCCS(=O)(=O)Nc1ccc(F)c(C(=O)c2c[nH]c3ncc(Cl)cc23)c1F + COc1ccc(COc2ccc(Cc3cnc(N)nc3N)cc2OC)cc1 [GW2580] (first compound 0.08 µM, partner dose 1 µM)",91.9
